Measurements published in article PMC11149415.
Residue numbers refer to the chain shown, from its start. Names and notes keep the numbering of the source. Where two headings read alike, the source gives them in different places. Results are given in words; binding and its absence hold for the method and conditions named. In cells and extracts the contact can be indirect. Some entries that bind do so weakly or less than the wild type.

The chains behind the UniProt entries cited, without tags or fusion partners. Where a name states a change or a piece, a line headed by the entry shows the natural chain unless it says otherwise. Residues count along the entry.
UniProt P14778: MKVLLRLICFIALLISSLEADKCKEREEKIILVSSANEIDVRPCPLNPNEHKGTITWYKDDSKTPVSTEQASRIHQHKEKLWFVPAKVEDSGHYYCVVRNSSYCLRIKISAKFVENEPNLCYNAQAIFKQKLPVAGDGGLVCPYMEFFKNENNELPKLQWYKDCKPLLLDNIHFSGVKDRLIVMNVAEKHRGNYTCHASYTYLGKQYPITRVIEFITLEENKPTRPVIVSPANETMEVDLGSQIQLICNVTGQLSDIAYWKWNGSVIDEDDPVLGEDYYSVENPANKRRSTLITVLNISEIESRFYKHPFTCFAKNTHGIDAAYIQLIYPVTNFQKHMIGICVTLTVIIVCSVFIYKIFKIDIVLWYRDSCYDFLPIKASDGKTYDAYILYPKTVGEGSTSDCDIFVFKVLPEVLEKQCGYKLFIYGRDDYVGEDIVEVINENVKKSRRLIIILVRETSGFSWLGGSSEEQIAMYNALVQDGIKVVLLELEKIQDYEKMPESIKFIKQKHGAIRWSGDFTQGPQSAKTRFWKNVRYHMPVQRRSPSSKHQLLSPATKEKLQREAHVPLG
IL1R1 N-terminal region (truncation mutant, N-terminal 1–360 aa): residues 18-360 of P14778
UniProt Q9NPH3, residues 21-570: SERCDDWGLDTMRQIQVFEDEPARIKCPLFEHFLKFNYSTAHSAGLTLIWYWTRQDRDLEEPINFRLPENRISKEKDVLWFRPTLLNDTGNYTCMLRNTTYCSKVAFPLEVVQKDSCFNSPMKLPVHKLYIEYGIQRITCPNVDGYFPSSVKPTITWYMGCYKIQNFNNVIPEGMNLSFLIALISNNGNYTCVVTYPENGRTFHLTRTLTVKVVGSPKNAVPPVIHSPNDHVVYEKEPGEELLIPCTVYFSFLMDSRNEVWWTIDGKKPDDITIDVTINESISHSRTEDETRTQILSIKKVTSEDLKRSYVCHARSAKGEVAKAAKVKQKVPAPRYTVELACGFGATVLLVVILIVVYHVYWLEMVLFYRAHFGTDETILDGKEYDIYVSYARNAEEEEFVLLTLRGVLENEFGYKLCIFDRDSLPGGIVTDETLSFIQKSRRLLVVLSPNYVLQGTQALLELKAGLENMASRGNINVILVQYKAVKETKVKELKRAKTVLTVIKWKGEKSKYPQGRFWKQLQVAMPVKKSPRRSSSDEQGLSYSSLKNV
UniProt Q99836: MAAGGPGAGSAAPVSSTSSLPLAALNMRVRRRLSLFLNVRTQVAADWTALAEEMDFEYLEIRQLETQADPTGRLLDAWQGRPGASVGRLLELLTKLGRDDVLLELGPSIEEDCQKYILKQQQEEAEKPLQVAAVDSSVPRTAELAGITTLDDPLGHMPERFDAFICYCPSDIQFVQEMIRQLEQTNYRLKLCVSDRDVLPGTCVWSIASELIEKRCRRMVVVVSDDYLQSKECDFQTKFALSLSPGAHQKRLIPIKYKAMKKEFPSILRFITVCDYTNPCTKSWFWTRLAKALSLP

Assays:
[1] = molecular target: IL-1 receptor type 1 (IL1R1), full-length, overexpressed (human) (UniProt P14778); experiment: co-IP; HEK293T cells transfected with the indicated plasmids; NP40 lysis buffer (20 mM Tris–HCl pH 7.4, 150 mM NaCl, 1 mM EDTA, 1% NP40); indicated antibody and protein G magnetic beads, 4 °C, 4 h or overnight; washed with lysis buffer with 500 mM NaCl; western blotting; in some panels with or without overexpressed ANGPTL3
[2] = molecular target: IL-1R accessory protein (IL1RAP), full-length, overexpressed (human) (UniProt Q9NPH3); experiment: as above
[3] = molecular target: IL1R1 in HepG2 cells (wild-type and ANGPTL3 knockout; Figure 6G–J) (human) (UniProt P14778); experiment: co-IP; HepG2 cells, wild-type and ANGPTL3 knockout; NP40 lysis buffer; indicated antibody and protein G magnetic beads, 4 °C; washed with 500 mM NaCl; western blotting and quantitative analysis
[4] = molecular target: IL1RAP in HepG2 cells (wild-type and ANGPTL3 knockout; Figure 6G–H) (human) (UniProt Q9NPH3); experiment: as above
IKKβ, overexpressed = molecular target: T1, IKKβ, overexpressed (UniProt O14920); experiment: co-IP; HEK293T cells transfected with the indicated plasmids; NP40 lysis buffer (20 mM Tris–HCl pH 7.4, 150 mM NaCl, 1 mM EDTA, 1% NP40); indicated antibody and protein G magnetic beads, 4 °C, 4 h or overnight; washed with lysis buffer with 500 mM NaCl; western blotting; in some panels with or without overexpressed ANGPTL3
T1 sequence: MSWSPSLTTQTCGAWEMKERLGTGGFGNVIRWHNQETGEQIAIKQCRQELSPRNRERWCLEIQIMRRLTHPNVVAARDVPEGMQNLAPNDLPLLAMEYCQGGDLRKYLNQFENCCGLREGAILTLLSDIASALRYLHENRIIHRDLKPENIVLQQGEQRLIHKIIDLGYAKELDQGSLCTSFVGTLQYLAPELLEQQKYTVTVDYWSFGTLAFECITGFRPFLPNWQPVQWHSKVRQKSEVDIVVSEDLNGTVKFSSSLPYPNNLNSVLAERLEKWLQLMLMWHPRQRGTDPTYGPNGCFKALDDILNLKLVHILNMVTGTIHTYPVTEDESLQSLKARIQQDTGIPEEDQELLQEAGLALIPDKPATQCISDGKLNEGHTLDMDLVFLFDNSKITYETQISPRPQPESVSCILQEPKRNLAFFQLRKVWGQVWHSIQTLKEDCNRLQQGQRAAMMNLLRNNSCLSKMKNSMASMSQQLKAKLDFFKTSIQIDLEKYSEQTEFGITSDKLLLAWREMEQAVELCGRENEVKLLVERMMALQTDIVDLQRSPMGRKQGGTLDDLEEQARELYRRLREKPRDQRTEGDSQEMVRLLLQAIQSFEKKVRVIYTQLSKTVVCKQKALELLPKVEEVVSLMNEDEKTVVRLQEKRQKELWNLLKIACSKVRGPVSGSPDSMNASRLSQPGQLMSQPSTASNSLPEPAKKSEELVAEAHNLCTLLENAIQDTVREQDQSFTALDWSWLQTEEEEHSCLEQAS

[5] = molecular target: IL-1 receptor type 1 (IL1R1), full-length, overexpressed (human) (UniProt P14778); experiment: as above; remark: listed apart in the source
[6] = molecular target: IL-1R accessory protein (IL1RAP), full-length, overexpressed (human) (UniProt Q9NPH3); experiment: as above; remark: listed apart in the source
[7] = molecular target: IL1R1 N-terminal region (truncation mutant, N-terminal 1–360 aa) (human) (UniProt P14778); experiment: as above
[8] = molecular target: myeloid differentiation primary response protein 88 (MyD88), overexpressed (UniProt Q99836); experiment: as above
[9] = molecular target: endogenous IL1R1 (human (endogenous in HepG2)) (UniProt P14778); experiment: co-IP; endogenous proteins in HepG2 cells, at the resting stage and under IL-1β treatment; NP40 lysis buffer; indicated antibody and protein G magnetic beads, 4 °C; washed with 500 mM NaCl; western blotting
[10] = molecular target: endogenous IL1RAP (human (endogenous in HepG2)) (UniProt Q9NPH3); experiment: as above

IL-1 receptor type 1 (IL1R1), full-length, overexpressed (from UniProt P14778 18-569)
binding [1]: binds

IL-1R accessory protein (IL1RAP), full-length, overexpressed (from UniProt Q9NPH3 21-570) (receptor)
binding [1]: binds | binding [2]: binds

IL1RAP in HepG2 cells (wild-type and ANGPTL3 knockout; Figure 6G–H) (from UniProt Q9NPH3 21-570) (receptor)
binding [3]: binds | binding [4]: binds

B1: Angiopoietin like 3 (ANGPTL3), full-length, overexpressed (protein, UniProt Q9Y5C1 17-460)
chain: SRIDQDNSSFDSLSPEPKSRFAMLDDVKILANGLLQLGHGLKDFVHKTKGQINDIFQKLNIFDQSFYDLSLQTSEIKEEEKELRRTTYKLQVKNEEVKNMSLELNSKLESLLEEKILLQQKVKYLEEQLTNLIQNQPETPEHPEVTSLKTFVEKQDNSIKDLLQTVEDQYKQLNQQHSQIKEIENQLRRTSIQEPTEISLSSKPRAPRTTPFLQLNEIRNVKHDGIPAECTTIYNRGEHTSGMYAIRPSNSQVFHVYCDVISGSPWTLIQHRIDGSQNFNETWENYKYGFGRLDGEFWLGLEKIYSIVKQSNYVLRIELEDWKDNKHYIEYSFYLGNHETNYTLHLVAITGNVPNAIPENKDLVFSTWDHKAKGHFNCPEGYSGGWWWHDECGENNLNGKYNKPRAKSKPERRRGLSWKSQNGRLYSIKSTKMLIHPTDSESFE
binding (IKKβ, overexpressed): no binding | binding [5]: binds | binding [6]: binds | binding [7]: binds | binding [8]: binds

B2: ANGPTL3 224–460 aa (C-terminal truncation mutant) (domain or fragment, UniProt Q9Y5C1 224-460)
chain: RTTPFLQLNEIRNVKHDGIPAECTTIYNRGEHTSGMYAIRPSNSQVFHVYCDVISGSPWTLIQHRIDGSQNFNETWENYKYGFGRLDGEFWLGLEKIYSIVKQSNYVLRIELEDWKDNKHYIEYSFYLGNHETNYTLHLVAITGNVPNAIPENKDLVFSTWDHKAKGHFNCPEGYSGGWWWHDECGENNLNGKYNKPRAKSKPERRRGLSWKSQNGRLYSIKSTKMLIHPTDSESFE
binding [5]: binds

B3: ANGPTL3 241–460 aa (C-terminal truncation mutant, FLD region) (domain or fragment, UniProt Q9Y5C1 241-460)
chain: GIPAECTTIYNRGEHTSGMYAIRPSNSQVFHVYCDVISGSPWTLIQHRIDGSQNFNETWENYKYGFGRLDGEFWLGLEKIYSIVKQSNYVLRIELEDWKDNKHYIEYSFYLGNHETNYTLHLVAITGNVPNAIPENKDLVFSTWDHKAKGHFNCPEGYSGGWWWHDECGENNLNGKYNKPRAKSKPERRRGLSWKSQNGRLYSIKSTKMLIHPTDSESFE
binding [5]: binds

B4: ANGPTL3 D42N (clinical loss-of-function mutant) (protein, UniProt Q9Y5C1 17-460)
chain: B1 chain with D26N
binding [5]: binds

B5: ANGPTL3 T383S (clinical loss-of-function mutant) (protein, UniProt Q9Y5C1 17-460)
chain: B1 chain with T367S
binding [5]: binds

B6: endogenous ANGPTL3 (protein, UniProt Q9Y5C1 17-460)
chain: B1 chain
binding [9]: binds | binding [10]: binds

B7: ANGPTL3 1–221 aa (N-terminal truncation mutant) (domain or fragment, UniProt Q9Y5C1 17-221)
chain: SRIDQDNSSFDSLSPEPKSRFAMLDDVKILANGLLQLGHGLKDFVHKTKGQINDIFQKLNIFDQSFYDLSLQTSEIKEEEKELRRTTYKLQVKNEEVKNMSLELNSKLESLLEEKILLQQKVKYLEEQLTNLIQNQPETPEHPEVTSLKTFVEKQDNSIKDLLQTVEDQYKQLNQQHSQIKEIENQLRRTSIQEPTEISLSSKPR
binding [5]: no binding

B8: ANGPTL3 1–240 aa (N-terminal truncation mutant) (domain or fragment, UniProt Q9Y5C1 17-240)
chain: SRIDQDNSSFDSLSPEPKSRFAMLDDVKILANGLLQLGHGLKDFVHKTKGQINDIFQKLNIFDQSFYDLSLQTSEIKEEEKELRRTTYKLQVKNEEVKNMSLELNSKLESLLEEKILLQQKVKYLEEQLTNLIQNQPETPEHPEVTSLKTFVEKQDNSIKDLLQTVEDQYKQLNQQHSQIKEIENQLRRTSIQEPTEISLSSKPRAPRTTPFLQLNEIRNVKHD
binding [5]: no binding
